This continues a long series; more values of the same kind are listed elsewhere.
Test system: cell lines from the Cancer Cell Line Encyclopedia (CCLE)
Test: High-throughput cell viability assay, CCLE cell line panel (n = 356)
Format: cell-based, human
Procedure: Cell lines were partitioned into sensitive and insensitive groups based on compound potency (IC50). […] All other cell lines were obtained from ATCC (American Type Culture Collection), DSMZ (Deutsche Sammlung von Mikroorganismen und Zellkulturen), and HSRRB (Health Science Research Resources Bank) and cultured in RPMI or Dulbecco's modified Eagle's medium plus 10% FBS (Invitrogen, Carlsbad, CA) at 37°C, 5% CO2.

COc1cc2c(cc1OC(C)C)[C@H](c1ccc(Cl)cc1)N(c1ccc(N(C)C[C@H]3CC[C@H](N4CCNC(=O)C4)CC3)cc1)C(=O)C2 [NVP-CFC218]
sensitivity call (OCI-AML2, TP53 WT): sensitive (Sensitivity call for each compound was applied according to a cut-off of 4 µM for IC50 and -50% for Amax) | Amax (OCI-LY10, TP53 MUT): -8.00% | sensitivity call (OCI-LY10, TP53 MUT): insensitive (Sensitivity call for each compound was applied according to a cut-off of 4 µM for IC50 and -50% for Amax) | Amax (OPM-2, TP53 MUT): -2.80% | sensitivity call (OPM-2, TP53 MUT): insensitive (Sensitivity call for each compound was applied according to a cut-off of 4 µM for IC50 and -50% for Amax) | Amax (OVCAR-4, TP53 MUT): 3.62% | sensitivity call (OVCAR-4, TP53 MUT): insensitive (Sensitivity call for each compound was applied according to a cut-off of 4 µM for IC50 and -50% for Amax) | Amax (OVSAHO, TP53 MUT): -32.55% | sensitivity call (OVSAHO, TP53 MUT): insensitive (Sensitivity call for each compound was applied according to a cut-off of 4 µM for IC50 and -50% for Amax) | Amax (P12-ICHIKAWA, TP53 MUT): -93.77% | sensitivity call (P12-ICHIKAWA, TP53 MUT): sensitive (Sensitivity call for each compound was applied according to a cut-off of 4 µM for IC50 and -50% for Amax) | Amax (PC-3, TP53 MUT): -20.98% | sensitivity call (PC-3, TP53 MUT): insensitive (Sensitivity call for each compound was applied according to a cut-off of 4 µM for IC50 and -50% for Amax) | Amax (PC-14, TP53 MUT): -25.08% | sensitivity call (PC-14, TP53 MUT): insensitive (Sensitivity call for each compound was applied according to a cut-off of 4 µM for IC50 and -50% for Amax) | Amax (PE/CA-PJ49, TP53 WT): -24.87% | sensitivity call (PE/CA-PJ49, TP53 WT): insensitive (Sensitivity call for each compound was applied according to a cut-off of 4 µM for IC50 and -50% for Amax) | Amax (PK-1, TP53 MUT): 1.38% | sensitivity call (PK-1, TP53 MUT): insensitive (Sensitivity call for each compound was applied according to a cut-off of 4 µM for IC50 and -50% for Amax) | Amax (PSN1, TP53 MUT): -6.25% | sensitivity call (PSN1, TP53 MUT): insensitive (Sensitivity call for each compound was applied according to a cut-off of 4 µM for IC50 and -50% for Amax) | Amax (Panc 04.03, TP53 MUT): -4.12% | sensitivity call (Panc 04.03, TP53 MUT): insensitive (Sensitivity call for each compound was applied according to a cut-off of 4 µM for IC50 and -50% for Amax) | Amax (RCM-1, TP53 MUT): -5.50% | sensitivity call (RCM-1, TP53 MUT): insensitive (Sensitivity call for each compound was applied according to a cut-off of 4 µM for IC50 and -50% for Amax) | Amax (RERF-GC-1B, TP53 MUT): -0.99% | sensitivity call (RERF-GC-1B, TP53 MUT): insensitive (Sensitivity call for each compound was applied according to a cut-off of 4 µM for IC50 and -50% for Amax) | Amax (RERF-LC-AI, TP53 WT): 1.17% | sensitivity call (RERF-LC-AI, TP53 WT): insensitive (Sensitivity call for each compound was applied according to a cut-off of 4 µM for IC50 and -50% for Amax) | Amax (RERF-LC-MS, TP53 MUT): -40.30% | sensitivity call (RERF-LC-MS, TP53 MUT): insensitive (Sensitivity call for each compound was applied according to a cut-off of 4 µM for IC50 and -50% for Amax) | Amax (RKO, TP53 WT): -56.51% | sensitivity call (RKO, TP53 WT): insensitive (Sensitivity call for each compound was applied according to a cut-off of 4 µM for IC50 and -50% for Amax) | Amax (RPMI-8402, TP53 MUT): -4.88% | sensitivity call (RPMI-8402, TP53 MUT): insensitive (Sensitivity call for each compound was applied according to a cut-off of 4 µM for IC50 and -50% for Amax) | Amax (RT-112, TP53 MUT): 2.33% | sensitivity call (RT-112, TP53 MUT): insensitive (Sensitivity call for each compound was applied according to a cut-off of 4 µM for IC50 and -50% for Amax) | Amax (Reh, TP53 WT): -80.40% | sensitivity call (Reh, TP53 WT): sensitive (Sensitivity call for each compound was applied according to a cut-off of 4 µM for IC50 and -50% for Amax) | Amax (S-117, TP53 MUT): 0.17% | sensitivity call (S-117, TP53 MUT): insensitive (Sensitivity call for each compound was applied according to a cut-off of 4 µM for IC50 and -50% for Amax) | Amax (SBC-5, TP53 MUT): -1.36% | sensitivity call (SBC-5, TP53 MUT): insensitive (Sensitivity call for each compound was applied according to a cut-off of 4 µM for IC50 and -50% for Amax) | Amax (SCC-25, TP53 MUT): -16.71% | sensitivity call (SCC-25, TP53 MUT): insensitive (Sensitivity call for each compound was applied according to a cut-off of 4 µM for IC50 and -50% for Amax) | Amax (SF-295, TP53 MUT): -1.59% | sensitivity call (SF-295, TP53 MUT): insensitive (Sensitivity call for each compound was applied according to a cut-off of 4 µM for IC50 and -50% for Amax) | Amax (SH-10-TC, TP53 MUT): -2.17% | sensitivity call (SH-10-TC, TP53 MUT): insensitive (Sensitivity call for each compound was applied according to a cut-off of 4 µM for IC50 and -50% for Amax) | Amax (SHP-77, TP53 MUT): -4.02% | sensitivity call (SHP-77, TP53 MUT): insensitive (Sensitivity call for each compound was applied according to a cut-off of 4 µM for IC50 and -50% for Amax) | Amax (SJRH30, TP53 MUT): -35.44% | sensitivity call (SJRH30, TP53 MUT): insensitive (Sensitivity call for each compound was applied according to a cut-off of 4 µM for IC50 and -50% for Amax) | Amax (SK-BR-3, TP53 MUT): 2.51% | sensitivity call (SK-BR-3, TP53 MUT): insensitive (Sensitivity call for each compound was applied according to a cut-off of 4 µM for IC50 and -50% for Amax) | Amax (SK-LMS-1, TP53 MUT): -25.67% | sensitivity call (SK-LMS-1, TP53 MUT): insensitive (Sensitivity call for each compound was applied according to a cut-off of 4 µM for IC50 and -50% for Amax) | Amax (SK-LU-1, TP53 MUT): 1.54% | sensitivity call (SK-LU-1, TP53 MUT): insensitive (Sensitivity call for each compound was applied according to a cut-off of 4 µM for IC50 and -50% for Amax) | Amax (SK-MEL-30, TP53 MUT): -2.63% | sensitivity call (SK-MEL-30, TP53 MUT): insensitive (Sensitivity call for each compound was applied according to a cut-off of 4 µM for IC50 and -50% for Amax) | Amax (SK-MES-1, TP53 MUT): -5.06% | sensitivity call (SK-MES-1, TP53 MUT): insensitive (Sensitivity call for each compound was applied according to a cut-off of 4 µM for IC50 and -50% for Amax) | Amax (SK-N-AS, TP53 WT): -3.46% | sensitivity call (SK-N-AS, TP53 WT): insensitive (Sensitivity call for each compound was applied according to a cut-off of 4 µM for IC50 and -50% for Amax) | Amax (SK-OV-3, TP53 MUT): 0.64% | sensitivity call (SK-OV-3, TP53 MUT): insensitive (Sensitivity call for each compound was applied according to a cut-off of 4 µM for IC50 and -50% for Amax) | Amax (SNU-182, TP53 MUT): 4.52% | sensitivity call (SNU-182, TP53 MUT): insensitive (Sensitivity call for each compound was applied according to a cut-off of 4 µM for IC50 and -50% for Amax) | Amax (SU-DHL-4, TP53 MUT): -29.17% | sensitivity call (SU-DHL-4, TP53 MUT): insensitive (Sensitivity call for each compound was applied according to a cut-off of 4 µM for IC50 and -50% for Amax) | Amax (SUP-M2, TP53 WT): -96.77% | sensitivity call (SUP-M2, TP53 WT): sensitive (Sensitivity call for each compound was applied according to a cut-off of 4 µM for IC50 and -50% for Amax) | Amax (SW480, TP53 MUT): -19.98% | sensitivity call (SW480, TP53 MUT): insensitive (Sensitivity call for each compound was applied according to a cut-off of 4 µM for IC50 and -50% for Amax) | Amax (SW 900, TP53 MUT): -4.18% | sensitivity call (SW 900, TP53 MUT): insensitive (Sensitivity call for each compound was applied according to a cut-off of 4 µM for IC50 and -50% for Amax) | Amax (SW 1353, TP53 MUT): -52.12% | sensitivity call (SW 1353, TP53 MUT): insensitive (Sensitivity call for each compound was applied according to a cut-off of 4 µM for IC50 and -50% for Amax) | Amax (SW1417, TP53 MUT): 7.38% | sensitivity call (SW1417, TP53 MUT): insensitive (Sensitivity call for each compound was applied according to a cut-off of 4 µM for IC50 and -50% for Amax) | Amax (SW 1783, TP53 MUT): -4.15% | sensitivity call (SW 1783, TP53 MUT): insensitive (Sensitivity call for each compound was applied according to a cut-off of 4 µM for IC50 and -50% for Amax) | Amax (T98G, TP53 MUT): -2.69% | sensitivity call (T98G, TP53 MUT): insensitive (Sensitivity call for each compound was applied according to a cut-off of 4 µM for IC50 and -50% for Amax) | Amax (TE 617.T, TP53 WT): -70.15% | sensitivity call (TE 617.T, TP53 WT): sensitive (Sensitivity call for each compound was applied according to a cut-off of 4 µM for IC50 and -50% for Amax) | Amax (TOV-21G, TP53 WT): -55.82% | sensitivity call (TOV-21G, TP53 WT): insensitive (Sensitivity call for each compound was applied according to a cut-off of 4 µM for IC50 and -50% for Amax) | Amax (TT2609-C02, TP53 MUT): -12.03% | sensitivity call (TT2609-C02, TP53 MUT): insensitive (Sensitivity call for each compound was applied according to a cut-off of 4 µM for IC50 and -50% for Amax) | Amax (U-937, TP53 MUT): -25.04% | sensitivity call (U-937, TP53 MUT): insensitive (Sensitivity call for each compound was applied according to a cut-off of 4 µM for IC50 and -50% for Amax) | Amax (VMRC-RCZ, TP53 WT): 0.87% | sensitivity call (VMRC-RCZ, TP53 WT): insensitive (Sensitivity call for each compound was applied according to a cut-off of 4 µM for IC50 and -50% for Amax) | Amax (WM-115, TP53 WT): -82.69% | sensitivity call (WM-115, TP53 WT): sensitive (Sensitivity call for each compound was applied according to a cut-off of 4 µM for IC50 and -50% for Amax) | Amax (WSU-DLCL2, TP53 MUT): 8.42% | sensitivity call (WSU-DLCL2, TP53 MUT): insensitive (Sensitivity call for each compound was applied according to a cut-off of 4 µM for IC50 and -50% for Amax)

Source: paper PMC4468608, “A distinct p53 target gene set predicts for response to the selective p53–HDM2 inhibitor NVP-CGM097” (eLife, 2015)
